Drawing on the supplement of paper PMC9446081, this text covers relative growth for 35 compounds.

In all, about 39,000 compounds went through this assay and about 220 (0.56%) showed activity. The list shows a part of the results.
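Also: static incubation at 37 °C against the wild-type strain, values averaged over two biological replicates.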

The assay concerns Escherichia coli K-12 BW25113. The assay is described as follows: relative growth (OD600 normalised to plate interquartile mean) (fraction); higher = less growth inhibition, active = 0.2 or less. As to conditions: 50 µM; LB; incubation time: overnight (16-24 h).
Turning to `C[C@H](CO)N1C[C@H](C)[C@H](CN(C)C(=O)Cc2ccncc2)Oc2cc(C#CC3CC3)ccc2S1(=O)=O`, the relative growth is inactive: 0.879.

For the compound `C[C@@H]1CN([C@@H](C)CO)C(=O)c2cc(NC(=O)Nc3cccc4ccccc34)ccc2O[C@@H](C)CCCCO[C@H]1CN(C)CC1CCCCC1`, the relative growth was inactive: 1.02.

For the compound `Cc1noc(C)c1NC(=O)Nc1ccc2c(c1)C(=O)N([C@@H](C)CO)C[C@@H](C)[C@H](CN(C)C(=O)Nc1ccc(C(F)(F)F)cc1)O2`, the relative growth was inactive: 0.956.

As to `C[C@@H]1CCCCO[C@H](CN(C)Cc2ccc3c(c2)OCO3)[C@H](C)CN([C@H](C)CO)C(=O)c2cc(NS(=O)(=O)c3ccc(Cl)cc3)ccc2O1`, the relative growth is inactive: 1.01.

Consider `C[C@H](CO)N1C[C@H](C)[C@H](CN(C)C(=O)CCCN(C)C)OCCCC[C@H](C)Oc2ccc(NC(=O)Nc3cccc4ccccc34)cc2C1=O`, for which the relative growth is inactive: 0.965.

`Oc1ccccc1CNc1ccc(C2CCCCC2)cc1`: the relative growth was inactive: 1.03.

Turning to `CCn1c2ccc(Cl)cc2c2cc(Cl)ccc21`, the relative growth was inactive: 1.02.

For `CN(C)CCCNC(=O)C[C@H]1CC[C@H]2[C@@H](COC[C@@H](O)CN2S(=O)(=O)c2ccccc2)O1`, the relative growth was inactive: 0.999.

As to `C[C@H]1CN([C@@H](C)CO)C(=O)c2cc(NS(=O)(=O)c3ccccc3)ccc2O[C@@H]1CN(C)S(=O)(=O)c1ccc(F)cc1`, the relative growth is inactive: 0.992.

`O=C(CCCCCNC(=O)OCc1ccc(CO[C@@H]2C[C@H](c3ccc(C(F)(F)F)cc3)C=C(C(=O)N3CCN(Cc4ccccc4)CC3)O2)cc1)NO`: the relative growth is inactive: 0.934.

With `COc1ccc2c3c([nH]c2c1)[C@@H](CO)N(C[C@]13CCN(CC1)Cc1ccccc1OC)C(=O)Nc1ccc(cc1)F`, the relative growth is inactive: 0.988.

Consider `COc1ccc(S(=O)(=O)Nc2ccc3c(c2)C(=O)N([C@H](C)CO)C[C@@H](C)[C@@H](CN(C)Cc2ccc4c(c2)OCO4)OCCCC[C@@H](C)O3)cc1`, for which the relative growth is inactive: 1.02.

In the case of `COc1ccc(NC(=O)N(C)C[C@H]2OCCCC[C@H](C)Oc3ccc(NC(=O)C4CCCCC4)cc3C(=O)N([C@H](C)CO)C[C@H]2C)cc1`, the relative growth was inactive: 1.02.

Consider `O=C(CCCCCCC(=O)Nc1ccc([C@H]2O[C@H](CSc3nc(-c4ccccc4)c(-c4ccccc4)o3)C[C@H](c3ccc(NC(=O)CCCCCCC(=O)NO)cc3)O2)cc1)NO`, for which the relative growth was inactive: 1.04.

In the case of `CCNC(=O)C[C@H]1CC[C@@H]2[C@H](COC[C@H](O)CN2S(=O)(=O)c2ccc(Oc3ccccc3)cc2)O1`, the relative growth was inactive: 0.978.

Take `C[C@H](CO)N1C[C@H](C)[C@H](CN(C)C(=O)NC2CCCCC2)OCCCC[C@H](C)Oc2ccc(NC(=O)Nc3ccccc3)cc2C1=O`: the relative growth was inactive: 1.01.

As for `C[C@@H]1COCCC(=O)N1`, the relative growth is inactive: 0.994.

`O=C(C[C@@H]1C[C@H]2c3cc(NS(=O)(=O)c4ccc(F)cc4)ccc3O[C@H]2[C@@H](CO)O1)NCc1cccnc1`: the relative growth is inactive: 0.971.

For `CC(=O)OCC(COC(C)=O)OC(C)=O`, the relative growth was inactive: 1.01.

On to `Cc1noc(C)c1NC(=O)Nc1cccc2c1O[C@H](CN(C)S(C)(=O)=O)[C@H](C)CN([C@@H](C)CO)C2=O`, for which the relative growth is inactive: 0.984.

Consider `C[C@@H]1CCCCO[C@@H](CN(C)S(=O)(=O)c2ccc(Cl)cc2)[C@H](C)CN([C@H](C)CO)C(=O)c2cc(NC(=O)Nc3ccc(F)cc3)ccc2O1`, for which the relative growth is inactive: 1.03.

For the compound `C[C@@H]1CN([C@@H](C)CO)C(=O)c2cc(NC(=O)CCN3CCOCC3)ccc2O[C@@H]1CN(C)Cc1ccc(C(=O)O)cc1`, the relative growth is inactive: 0.944.

In the case of `CO[C@@H]1CN(C)C(=O)c2ccc(NS(C)(=O)=O)cc2OC[C@@H](C)N(C(=O)c2ccc3c(c2)OCO3)C[C@@H]1C`, the relative growth is inactive: 0.974.

As for `COc1cccc(S(=O)(=O)Nc2ccc3c(c2)[C@@H]2C[C@H](CC(=O)NCC(F)(F)F)O[C@@H](CO)[C@@H]2O3)c1`, the relative growth is inactive: 1.01.

`C[C@H]1CCCCN1C(=O)CCS(=O)(=O)c1ccc2c(c1)n(C)c(=O)c(=O)n2C`: the relative growth was inactive: 0.918.

With `COc1ccc(NC(=O)N(C)C[C@H]2OCCCC[C@@H](C)Oc3ccc(NC(=O)c4ccccc4)cc3C(=O)N([C@@H](C)CO)C[C@@H]2C)cc1`, the relative growth was inactive: 1.

As to `C[C@H](CO)N1C[C@H](C)[C@H](CN(C)S(=O)(=O)c2ccc(F)cc2)Oc2ccc(NC(=O)Cn3cnnn3)cc2CC1=O`, the relative growth was inactive: 1.02.

Regarding `C[C@@H]1CN([C@H](C)CO)C(=O)c2cc(NS(C)(=O)=O)ccc2O[C@@H]1CN(C)Cc1ccc(C(F)(F)F)cc1`, the relative growth was inactive: 0.968.

Consider `Cc1ccc(S(=O)(=O)N(C)C[C@H]2OCCCC[C@@H](C)Oc3ccc(NC(=O)NC4CCCCC4)cc3C(=O)N([C@@H](C)CO)C[C@@H]2C)cc1`, for which the relative growth was inactive: 1.01.

In the case of `CCOc1ccc(CO[C@@H]2O[C@H](CO)[C@@H](O)[C@H](O)[C@H]2NC(C)=O)cc1OC`, the relative growth is inactive: 1.02.

In the case of `C[C@@H]1CN([C@@H](C)CO)S(=O)(=O)c2ccc(-c3cccnc3)cc2O[C@@H]1CN(C)C(=O)c1cccc(F)c1`, the relative growth was inactive: 0.98.

For `Cc1noc(C)c1NC(=O)Nc1ccc2c(c1)C(=O)N([C@@H](C)CO)C[C@H](C)[C@H](CN(C)Cc1ccncc1)OCCCC[C@H](C)O2`, the relative growth was inactive: 1.

As for `O=c1cc[nH]c(=S)[nH]1`, the relative growth was inactive: 0.959.

Take `CN[C@H]1[C@@H](O[C@H]2[C@@H](O[C@H]3[C@@H](O)[C@@H](O)[C@@H](NC(=N)N)[C@@H](O)[C@@H]3NC(=N)N)O[C@@H](C)[C@@]2(O)C=O)O[C@@H](CO)[C@@H](O)[C@@H]1O.CN[C@H]1[C@@H](O[C@H]2[C@@H](O[C@H]3[C@@H](O)[C@@H](O)[C@@H](NC(=N)N)[C@@H](O)[C@@H]3NC(=N)N)O[C@@H](C)[C@@]2(O)C=O)O[C@@H](CO)[C@@H](O)[C@@H]1O.O=S(=O)(O)O.O=S(=O)(O)O.O=S(=O)(O)O`: the relative growth is inactive: 0.372.

For the compound `Cc1ccc(S[C@]2(C(=O)NCC(C)C)CC(=O)N(Cc3cc(C(F)(F)F)cc(C(F)(F)F)c3)[C@@H]2c2ccc(CO)cc2)cc1`, the relative growth was inactive: 0.992.
